From the supplement of paper PMC4967469
The IC50 comes from the fitted curve, where viability falls to half of the control; fits outside the tested doses are given as limits. AUC is the area under the same curve over the 256-fold range up to the top dose, as a fraction; the more sensitive the line, the further below 1. For some of these results: Where the top dose is marked as inferred, it was calculated from the reported fits. For some of these results: An entry number marks a drug with two screens in the source, which often give different values.

How the values were obtained:
Assay in all cases: Viability of human cancer cell lines after 72 h of drug (GDSC screen)
Pyrimethamine = compound: CCc1nc(N)nc(N)c1-c1ccc(Cl)cc1 [Pyrimethamine]; conditions: top dose 20 µM; top dose inferred
Description: (§1)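 Human cancer cell lines in 384-well plates, medium with 10% serum, drug for 72 h over a 256-fold dose range (nine 2-fold or five 4-fold steps up to the top dose). Adherent lines were fixed and stained with the nucleic acid dye Syto60, suspension lines read with resazurin; signal relative to control wells, capped at 0 and 100%. One two-parameter sigmoid per drug and line, fitted in a mixed model over all curves with the slope shared within a line.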

Epothilone B = compound: C/C(=C\c1csc(C)n1)[C@@H]1C[C@@H]2O[C@]2(C)CCC[C@H](C)[C@H](O)[C@@H](C)C(=O)C(C)(C)[C@@H](O)CC(=O)O1 [Epothilone B]; conditions: top dose 0.032 µM; top dose inferred
Description: as §1

TPCA-1 = compound: NC(=O)Nc1sc(-c2ccc(F)cc2)cc1C(N)=O [TPCA-1]; conditions: top dose 20 µM
Description: as §1

Y-39983 = compound: C[C@@H](N)c1ccc(C(=O)Nc2ccnc3[nH]ccc23)cc1 [Y-39983]; conditions: top dose 20 µM; top dose inferred
Description: as §1

AZD-0530 = compound: CN1CCN(CCOc2cc(OC3CCOCC3)c3c(Nc4c(Cl)ccc5c4OCO5)ncnc3c2)CC1 [AZD-0530]; conditions: top dose 2 µM
Description: as §1

PHA-793887 = compound: CC(C)CC(=O)Nc1n[nH]c2c1CN(C(=O)C1CCN(C)CC1)C2(C)C [PHA-793887]; conditions: top dose 10.24 µM
Description: as §1

PLX4720 = compound: CCCS(=O)(=O)Nc1ccc(F)c(C(=O)c2c[nH]c3ncc(Cl)cc23)c1F [PLX4720]; conditions: top dose 10 µM
Description: as §1

[1] = screen: GDSC drug entry 1371, top dose inferred

Cell Line | AUC (Pyrimethamine) | IC50 (Pyrimethamine) | AUC (Epothilone B) | IC50 (Epothilone B) | AUC (TPCA-1) | IC50 (TPCA-1) | AUC (Y-39983) | IC50 (Y-39983) | AUC (AZD-0530) | IC50 (AZD-0530) | AUC (PHA-793887) | IC50 (PHA-793887) | AUC (PLX4720; screen: GDSC drug entry 1036) | IC50 (PLX4720; screen: GDSC drug entry 1036) | AUC (PLX4720; [1]) | IC50 (PLX4720; [1])
BC-3 (B-cell lymphoma, suspension) | 0.855 | 13.4 µM | 0.753 | 0.0097 µM | 0.472 | 1.06 µM | 0.916 | > 20 µM | 0.989 | > 2 µM | 0.566 | 0.95 µM |  |  |  | 
BT-474 (breast, adherent) | 0.981 | > 20 µM | 0.775 | 0.0142 µM | 0.963 | > 20 µM | 0.968 | > 20 µM |  |  | 0.868 | > 10.2 µM | 0.985 | > 10 µM | 0.97 | > 10 µM
CAL-148 (breast, suspension) | 0.983 | > 20 µM | 0.672 | 0.0058 µM | 0.821 | 10.5 µM | 0.942 | > 20 µM | 0.987 | > 2 µM | 0.954 | > 10.2 µM |  |  |  | 
CL-11 (large intestine, adherent) | 0.986 | > 20 µM | 0.969 | > 0.032 µM | 0.962 | > 20 µM | 0.983 | > 20 µM |  |  | 0.987 | > 10.2 µM | 0.987 | > 10 µM | 0.986 | > 10 µM
D-247MG (glioma, adherent) | 0.978 | > 20 µM |  |  | 0.98 | > 20 µM | 0.928 | > 20 µM | 0.919 | > 2 µM | 0.98 | > 10.2 µM | 0.949 | > 10 µM | 0.971 | > 10 µM
D-392MG (glioma, adherent) | 0.961 | > 20 µM | 0.921 | > 0.032 µM | 0.861 | > 20 µM | 0.981 | > 20 µM |  |  | 0.914 | > 10.2 µM | 0.96 | > 10 µM | 0.978 | > 10 µM
D-542MG (glioma, adherent) | 0.981 | > 20 µM | 0.976 | > 0.032 µM | 0.978 | > 20 µM | 0.952 | > 20 µM |  |  | 0.984 | > 10.2 µM | 0.977 | > 10 µM | 0.982 | > 10 µM
DOHH-2 (B-cell lymphoma, suspension) | 0.925 | > 20 µM | 0.661 | 0.00553 µM |  |  |  |  | 0.865 |  |  |  | 0.926 | > 10 µM |  | 
EW-12 (Ewing sarcoma, suspension) | 0.921 | > 20 µM |  |  |  |  |  |  | 0.97 | > 2 µM |  |  |  |  |  | 
EW-22 (Ewing sarcoma, adherent) | 0.866 | 16.6 µM |  |  |  |  |  |  | 0.985 | > 2 µM |  |  | 0.964 | > 10 µM | 0.943 | > 10 µM
GA-10 (Burkitt lymphoma, suspension) | 0.897 | 18.1 µM |  |  |  |  |  |  | 0.735 | 0.512 µM |  |  | 0.948 | > 10 µM | 0.963 | > 10 µM
GAK (melanoma, adherent) | 0.989 | > 20 µM | 0.708 | 0.00744 µM | 0.951 | > 20 µM | 0.987 | > 20 µM |  |  | 0.99 | > 10.2 µM | 0.972 | > 10 µM | 0.959 | > 10 µM
HCC2998 (large intestine, adherent) | 0.747 |  | 0.349 | 0.000772 µM | 0.952 | > 20 µM | 0.976 | > 20 µM |  |  | 0.884 | > 10.2 µM |  |  |  | 
HCC-33 (small cell lung carcinoma, adherent) | 0.919 | > 20 µM | 0.814 | 0.0177 µM | 0.911 | > 20 µM | 0.912 | > 20 µM | 0.985 | > 2 µM | 0.404 | 0.348 µM |  |  |  | 
HH (T-cell leukaemia, suspension) | 0.875 | > 20 µM | 0.705 | 0.00928 µM | 0.647 | 3.67 µM | 0.755 | 8.87 µM |  |  | 0.496 | 0.62 µM | 0.923 | > 10 µM | 0.949 | > 10 µM
IM-9 (myeloma, suspension) | 0.973 | > 20 µM | 0.895 | 0.0296 µM |  |  |  |  | 0.992 | > 2 µM |  |  | 0.983 | > 10 µM | 0.96 | > 10 µM
KARPAS-231 (B-cell leukaemia, suspension) | 0.679 | 3.46 µM | 0.44 | 0.00143 µM |  |  |  |  | 0.907 | 1.61 µM | 0.204 | 0.114 µM | 0.901 | 7.62 µM | 0.994 | > 10 µM
KASUMI-1 (acute myeloid leukaemia, suspension) | 0.983 | > 20 µM |  |  |  |  |  |  | 0.982 | > 2 µM | 0.368 | 0.277 µM |  |  | 0.807 | 5.17 µM

Cell Line | AUC (Pyrimethamine) | IC50 (Pyrimethamine) | AUC (Epothilone B) | IC50 (Epothilone B) | AUC (TPCA-1) | IC50 (TPCA-1) | AUC (Y-39983) | IC50 (Y-39983) | AUC (AZD-0530) | IC50 (AZD-0530) | AUC (PHA-793887) | IC50 (PHA-793887) | AUC (PLX4720; screen: GDSC drug entry 1036) | IC50 (PLX4720; screen: GDSC drug entry 1036) | AUC (PLX4720; [1]) | IC50 (PLX4720; [1])
KMS-12-BM (myeloma, suspension) | 0.916 | > 20 µM | 0.622 | 0.00407 µM | 0.526 | 1.45 µM | 0.875 | 14 µM | 0.99 | > 2 µM | 0.45 | 0.479 µM |  |  |  | 
KP-N-YS (neuroblastoma, adherent) | 0.894 | > 20 µM | 0.582 | 0.00348 µM | 0.693 | 4.73 µM | 0.74 | 6.79 µM | 0.967 | > 2 µM | 0.666 | 1.99 µM |  |  |  | 
LB647-SCLC (small cell lung carcinoma, semi-adherent) | 0.898 | > 20 µM | 0.566 |  |  |  |  |  | 0.931 | > 2 µM |  |  | 0.944 | > 10 µM | 0.983 | > 10 µM
MOLT-13 (T-cell lymphoblastic leukaemia, suspension) | 0.928 | > 20 µM |  |  | 0.754 | 6.02 µM | 0.827 | 10.3 µM | 0.989 | > 2 µM | 0.334 | 0.236 µM | 0.989 | > 10 µM | 0.983 | > 10 µM
NB12 (neuroblastoma, adherent) | 0.977 | > 20 µM | 0.87 | > 0.032 µM | 0.869 | > 20 µM | 0.967 | > 20 µM |  |  | 0.944 | > 10.2 µM | 0.972 | > 10 µM | 0.954 | > 10 µM
NB17 (neuroblastoma, adherent) | 0.979 | > 20 µM |  |  | 0.842 | 17.3 µM | 0.908 | > 20 µM | 0.957 | > 2 µM | 0.722 | 3.04 µM | 0.984 | > 10 µM | 0.975 | > 10 µM
NCI-H23 (lung adenocarcinoma, adherent) | 0.745 | 6.25 µM | 0.866 | 0.028 µM | 0.923 | > 20 µM | 0.976 | > 20 µM |  |  | 0.958 | > 10.2 µM | 0.988 | > 10 µM | 0.986 | > 10 µM
NCI-H128 (small cell lung carcinoma, suspension) | 0.896 | > 20 µM |  |  |  |  |  |  | 0.975 | > 2 µM |  |  |  |  |  | 
NCI-H748 (small cell lung carcinoma, suspension) | 0.858 | > 20 µM | 0.864 | > 0.032 µM | 0.875 | > 20 µM | 0.952 | > 20 µM | 0.972 | > 2 µM | 0.619 | 1.49 µM |  |  |  | 
NCI-H1963 (small cell lung carcinoma, suspension) | 0.886 | 17.1 µM | 0.76 | 0.00993 µM | 0.951 | > 20 µM | 0.989 | > 20 µM | 0.991 | > 2 µM |  |  |  |  |  | 
NCI-H2171 (small cell lung carcinoma, suspension) | 0.879 | 15.9 µM | 0.753 | 0.00941 µM | 0.867 | 14.2 µM | 0.987 | > 20 µM | 0.981 | > 2 µM | 0.729 | 2.57 µM |  |  |  | 
NCI-H2227 (small cell lung carcinoma, semi-adherent) | 0.975 | > 20 µM | 0.963 | > 0.032 µM | 0.57 | 2 µM | 0.785 | 9.78 µM |  |  | 0.726 | 3.1 µM | 0.962 | > 10 µM | 0.929 | > 10 µM
NK-92MI (lymphoid neoplasm, suspension) | 0.959 | > 20 µM | 0.722 | 0.00807 µM |  |  |  |  | 0.94 | > 2 µM |  |  |  |  |  | 
RC-K8 (B-cell lymphoma, suspension) | 0.962 | > 20 µM | 0.951 | > 0.032 µM | 0.947 | > 20 µM | 0.991 | > 20 µM |  |  | 0.956 | > 10.2 µM | 0.972 | > 10 µM | 0.972 | > 10 µM
RL95-2 (endometrium, adherent) | 0.844 | 14.1 µM |  |  | 0.664 | 3.56 µM | 0.917 | > 20 µM | 0.865 | 1.74 µM | 0.936 | > 10.2 µM |  |  | 0.97 | > 10 µM
SCH (stomach, adherent) | 0.985 | > 20 µM | 0.982 | > 0.032 µM | 0.988 | > 20 µM | 0.988 | > 20 µM |  |  | 0.879 | > 10.2 µM | 0.911 | > 10 µM | 0.893 | > 10 µM
SKM-1 (haematopoietic neoplasm, suspension) | 0.95 | > 20 µM |  |  |  |  |  |  | 0.91 | > 2 µM |  |  | 0.957 | > 10 µM | 0.982 | > 10 µM
TK (B-cell lymphoma, suspension) | 0.65 | 3.12 µM | 0.619 | 0.00412 µM | 0.74 | 5.62 µM | 0.89 | 19.5 µM |  |  | 0.941 | > 10.2 µM | 0.96 | > 10 µM | 0.977 | > 10 µM
